Test results as given in the RNAGym collection of RNA variant scans (doi:10.7554/elife.90254).
Read counts are not given, so values of variants with three or more changes are uncertain.

B1: LINE1-mini (parent)
chain: GGCAGAGCUCAACACAGCGUGGCAAAGUGGCUGUGGCUAGACUGCC

Variants of: B1
Test: self-cleavage, relative activity (ratio to wild type); higher = more cleavage; in vitro, sequencing; the parent is a self-cleaving ribozyme
Variant C10A G19C U20C U28G has a self-cleavage of 0.
With C10A C31A C46A the self-cleavage was 0.02.
Variant C10A G19C G22A A24C C46U has a self-cleavage of 0.04.
C10A C23G U34C G40U showed a self-cleavage of 0.01.
Work on C10A A25U G29U U34G A39U C42A G44U yielded a self-cleavage of 0.01.
C10A C18U C31U C45U gave a self-cleavage of 0.01.
Work on C10A A16U G40C yielded a self-cleavage of 0.02.
Variant C10A G27A G33U has a self-cleavage of 0.08.
Work on C10A C18G U32A G33U yielded a self-cleavage of 0.01.
With C10A C15A U38A G40U G44C the self-cleavage was 0.01.
Variant C10A A25G C37U has a self-cleavage of 0.
With C10A G19C G21A U38G C42G the self-cleavage was 0.01.
With C10A G21U A24C U34G A39G the self-cleavage was 0.01.
Work on C10A C13A C18A G19C G30U C31G yielded a self-cleavage of 0.02.
C10A A24C C45G C46A gave a self-cleavage of 0.
C10A C15G A16U C37G gave a self-cleavage of 0.01.
Variant C10A G22U C23A G40U has a self-cleavage of 0.01.
With C10A C18G A26U the self-cleavage was 0.05.
For C10A C18G A26C, the self-cleavage was 0.04.
Work on C10A C15A A26C G29A G44C yielded a self-cleavage of 0.03.
In the case of C10A G21U G44C, the self-cleavage is reported as 0.04.
With C10A G22A A39C U43A G44C the self-cleavage was 0.01.
For C10A C18U G29U, the self-cleavage was 0.07.
C10A G17U A24G gave a self-cleavage of 0.37.
In the case of C10A G21U G40A, the self-cleavage is reported as 0.01.
Work on C10A G19C C42G yielded a self-cleavage of 0.01.
In the case of C10A C13A A41U, the self-cleavage is reported as 0.03.
C10A G27U G30U showed a self-cleavage of 0.03.
In the case of C10A C15G G21U, the self-cleavage is reported as 0.
C10A G19U A24C G33U U38C gave a self-cleavage of 0.02.
With C10A G22A C23U C42A the self-cleavage was 0.03.
C10A A24U G40A gave a self-cleavage of 0.05.
For C10A G21C A41C, the self-cleavage was 0.
In the case of C10A C15A G19U G35A, the self-cleavage is reported as 0.03.
For C10A A25C C37U U38C, the self-cleavage was 0.02.
C10A G29U G35U gave a self-cleavage of 0.02.
In the case of C10A C13U C18A G22A A25U G33U, the self-cleavage is reported as 0.01.
Variant C10A C15A A24U A39U has a self-cleavage of 0.18.
In the case of C10A A24U G36A C42G, the self-cleavage is reported as 0.02.
In the case of C10A G21U C45U, the self-cleavage is reported as 0.05.
With C10A C23A A25U C42A the self-cleavage was 0.02.
Variant C10A C18A G29C U38A has a self-cleavage of 0.17.
Variant C10A C13A G40A has a self-cleavage of 0.02.
C10A G21C U28G A39U gave a self-cleavage of 0.07.
Work on C10A G17A A24C C37U yielded a self-cleavage of 0.01.
Variant C10A A41C C42A has a self-cleavage of 0.01.
For C10A C13U A25C G40U, the self-cleavage was 0.01.
In the case of C10A G19A C23U G44C, the self-cleavage is reported as 0.02.
For C10A C13U C37G G40U, the self-cleavage was 0.
C10A C18U C23A G44U showed a self-cleavage of 0.
In the case of C10A C13G C18U A24U U34C G35U, the self-cleavage is reported as 0.01.
In the case of C10A A41G C42U, the self-cleavage is reported as 0.03.
In the case of C10A U20C C46A, the self-cleavage is reported as 0.05.
In the case of C10A G21C U28G G36A, the self-cleavage is reported as 0.01.
C10A G17C C46G showed a self-cleavage of 0.05.
Work on C10A C31U U34A C42G yielded a self-cleavage of 0.01.
Work on C10A C23A A24C G35U yielded a self-cleavage of 0.01.
C10A C23G C46U gave a self-cleavage of 0.02.
For C10A G27U G35A G44C, the self-cleavage was 0.01.
C10A G17A G22U U28A G35C G40A gave a self-cleavage of 0.02.
Work on C10A A25C U28G yielded a self-cleavage of 0.03.
In the case of C10A U20C A25C G29C C37G, the self-cleavage is reported as 0.
With C10A C23U G36U the self-cleavage was 0.04.
Work on C10A C15U C31A C37A yielded a self-cleavage of 0.01.
Work on C10A C13U G27A U28C yielded a self-cleavage of 0.01.
C10A A39C G40A showed a self-cleavage of 0.08.
C10A C13U A14C C15U G19C showed a self-cleavage of 0.01.
C10A G30C G44A gave a self-cleavage of 0.03.
With C10A G29C C42U the self-cleavage was 0.03.
For C10A C13A C18U G21U, the self-cleavage was 0.03.
In the case of C10A C13U C23U, the self-cleavage is reported as 0.02.
C10A G19U G36U gave a self-cleavage of 0.
C10A A26C C37A showed a self-cleavage of 0.04.
C10A C13G C18G G19C gave a self-cleavage of 0.02.
In the case of C10A C31G C42A, the self-cleavage is reported as 0.01.
Work on C10A A16U G29U yielded a self-cleavage of 0.32.
Work on C10A G17U G40C G44C yielded a self-cleavage of 0.02.
C10A C15U U28G gave a self-cleavage of 0.06.
With C10A C15U U28C the self-cleavage was 0.1.
Work on C10A G17A U20C yielded a self-cleavage of 0.03.
Variant C10A C15G A24G G29U has a self-cleavage of 0.02.
With C10A U20A A26G U28G the self-cleavage was 0.03.
C10A C15A U43A gave a self-cleavage of 0.01.
With C10A G21A C23U C46A the self-cleavage was 0.
In the case of C10A G22A C37G G44U, the self-cleavage is reported as 0.
Variant C10A G27A C31U C42U has a self-cleavage of 0.01.
Work on C10A G17C G19A G40A A41C yielded a self-cleavage of 0.01.
For C10A C13U G19A U32A G40U C46A, the self-cleavage was 0.03.
For C10A C31A U34G, the self-cleavage was 0.03.
In the case of C10A C18U G19A A26G, the self-cleavage is reported as 0.05.
Variant C10A C23U G33C G35A has a self-cleavage of 0.03.
Work on C10A C18A A24C U38C yielded a self-cleavage of 0.04.
With C10A U20A U34C A41C the self-cleavage was 0.01.
Variant C10A G30U G36U has a self-cleavage of 0.
In the case of C10A C18U G21U G35U G36A U38G, the self-cleavage is reported as 0.01.
In the case of C10A C31A A39U C45A C46A, the self-cleavage is reported as 0.03.
Work on C10A C15G A26U C37G C42A yielded a self-cleavage of 0.
C10A C18U U32C G44U showed a self-cleavage of 0.
With C10A C15U A41G the self-cleavage was 0.05.
Variant C10A G19U G29U has a self-cleavage of 0.03.
With C10A G36U C37A A39U the self-cleavage was 0.
Work on C10A C18U A41C yielded a self-cleavage of 0.01.
In the case of C10A G17A G30U, the self-cleavage is reported as 0.03.
C10A G19A A41C gave a self-cleavage of 0.07.
C10A G21U G30U showed a self-cleavage of 0.02.
With C10A G21U G33U the self-cleavage was 0.07.
Variant C10A G22A A26C C45U has a self-cleavage of 0.01.
With C10A G29A G30C C46U the self-cleavage was 0.07.
C10A A24U A25G showed a self-cleavage of 0.02.
C10A G33A U34G gave a self-cleavage of 0.
In the case of C10A C13G G17U C18G, the self-cleavage is reported as 0.05.
C10A G30U G33U G35A C37A U43C gave a self-cleavage of 0.01.
Work on C10A C13A C42A yielded a self-cleavage of 0.07.
For C10A A41C C46G, the self-cleavage was 0.01.
Work on C10A G30U G40A yielded a self-cleavage of 0.04.
In the case of C10A C37U C45G, the self-cleavage is reported as 0.
Variant C10A C15A C18G G19C G29U A39C has a self-cleavage of 0.02.
In the case of C10A C15U A25C G35A A39U A41C, the self-cleavage is reported as 0.04.
Work on C10A G21A C42U G44U yielded a self-cleavage of 0.
Work on C10A C15A G17A yielded a self-cleavage of 0.02.
Variant C10A G27A C42U G44U has a self-cleavage of 0.01.
C10A C13A A26U showed a self-cleavage of 0.01.
C10A C15U G27U A39U showed a self-cleavage of 0.05.
In the case of C10A A26G G33A A41G C45U, the self-cleavage is reported as 0.02.
Work on C10A G17U A25U yielded a self-cleavage of 0.13.
For C10A G30A U38G C42U G44A, the self-cleavage was 0.01.
For C10A C18G U32C, the self-cleavage was 0.01.
C10A C23A U43A C45A gave a self-cleavage of 0.03.
Work on C10A C15A G17A G21U yielded a self-cleavage of 0.06.
For C10A G17C G22C G44C, the self-cleavage was 0.04.
In the case of C10A C13G G22U, the self-cleavage is reported as 0.03.
Variant C10A A24G G35U has a self-cleavage of 0.06.
With C10A C18A U32A G44U the self-cleavage was 0.01.
C10A C18G C31G gave a self-cleavage of 0.02.
In the case of C10A C18U A26C G30U C37U, the self-cleavage is reported as 0.01.
Work on C10A G17U G19C G21U yielded a self-cleavage of 0.43.
C10A G22A U28C gave a self-cleavage of 0.04.
Work on C10A G22U G35C yielded a self-cleavage of 0.02.
With C10A G27A A41C the self-cleavage was 0.03.
C10A C18G U20C A26C gave a self-cleavage of 0.08.
C10A A16U U20A C42U gave a self-cleavage of 0.01.
With C10A G19U C42U the self-cleavage was 0.02.
In the case of C10A C18G C37G A39C, the self-cleavage is reported as 0.
In the case of C10A C23A U28C G30U C42G, the self-cleavage is reported as 0.01.
C10A G17C A41C showed a self-cleavage of 0.01.
C10A G35U C37A U38A G40A showed a self-cleavage of 0.02.
C10A G22U C46A gave a self-cleavage of 0.01.
Work on C10A G21U A24G yielded a self-cleavage of 0.03.
Variant C10A C37G A41C has a self-cleavage of 0.02.
C10A G33A U43C showed a self-cleavage of 0.02.
Work on C10A G19A G29U yielded a self-cleavage of 0.07.
Work on C10A G19A U28G yielded a self-cleavage of 0.14.
C10A C13U A16G showed a self-cleavage of 0.01.
In the case of C10A C15U G17U G29C, the self-cleavage is reported as 0.02.
In the case of C10A C13G C18G, the self-cleavage is reported as 0.02.
Work on C10A C15A A16C G17U G21C A41U C42U yielded a self-cleavage of 0.02.
With C10A A26G U28C U34A C37U the self-cleavage was 0.01.
With C10A G19U A25G U32A the self-cleavage was 0.02.
For C10A G19U A25U A26G G35U, the self-cleavage was 0.01.
C10A C18U A24C gave a self-cleavage of 0.03.
For C10A G22A A24G U32A, the self-cleavage was 0.02.
In the case of C10A A26C G29U G40C A41G, the self-cleavage is reported as 0.
C10A C13U C18U A25G G36C C45U showed a self-cleavage of 0.01.
C10A C15G U20G U38C G44A showed a self-cleavage of 0.01.
In the case of C10A G17A G40U, the self-cleavage is reported as 0.01.
Variant C10A G27A G30U G36U has a self-cleavage of 0.
In the case of C10A C15A U32C U34A, the self-cleavage is reported as 0.03.
